Laboratory results reported in PubChem BioAssay AID1508623 (National Center for Advancing Translational Sciences (NCATS), 2021).
About 450 (0.94%) of roughly 48,000 compounds were called active. Roughly 19% stayed inconclusive and do not appear here. Calls come from the whole dose curve; as a rule, active = well fitted inhibition curve with a large enough effect; inconclusive = small, poorly fitted or top-dose-only effect; inactive = no such curve, though single readings can be large or run the other way. The list shows a part of the results.

Test: Primary qHTS for Identification of Small Molecule Inhibitors of Huntingtin Promoter Activity; note: nearly all actives have a fitted effect of over 50% in size
Conditions: HEK293 HTT promoter firefly luciferase reporter (activity 0% = vehicle and -100% = no light), 24 h; series mostly up to 57.5 µM; activity change, negative = inhibition: at the top concentration
How it was run: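 Luminescence was read after Dual-Glo reagent and a 10 min room-temperature incubation. Values were normalized to vehicle (0% activity) and zero RLU (-100% activity). Reporter HEK293 cells had been exposed to compounds (up to 57.5 uM final) for 24 h.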
Potency is the fitted concentration of half-maximal effect.

Activity change, negative = inhibition, inactive:
Cc1ccc(OCC(=O)Nc2nnc(SCc3cc(=O)n4cc(C)ccc4n3)s2)cc1 -2.1%
Cc1noc(-c2ccc(N(C)Cc3ccccc3)c([N+](=O)[O-])c2)n1 -12.7%
COC(=O)c1ccccc1NC(=O)CCn1c(=O)c2cccn2c2cccnc21 -3.21%
COc1ccc(C(=O)Nc2cc(-c3nc4ncccc4o3)ccc2C)cc1Br 3.91%
COc1ccc(OCc2nc(-c3ccc(OC)c(OC)c3)no2)cc1 -19.2%
CC(=O)Nc1ccc(C)cc1-c1nc2ccccc2n(Cc2cccc(Br)c2)c1=O 0.372%
CC(=O)Nc1c(C)nn(-c2ccccc2)c1N1CCC(C(=O)Nc2ccc(C)cc2Cl)CC1 -9.33%
C1CCC(C(CC2CCCCN2)C2CCCCC2)CC1 (centres undefined) -18.3%
CCCc1nc2nc(C)c(NS(=O)(=O)c3ccc(C)c(C)c3)c(=O)n2[nH]1 7.68%
CCOC(=O)C1CCCN(C(=O)c2ccc(C)c(NC(=O)c3nsc4ccccc34)c2)C1 (centres undefined) -30.8%
COc1cccc(NC(=O)CSc2nnc3[nH]c(=O)cc(-c4ccccc4)n23)c1 12.1%
CCc1ccc(NS(=O)(=O)c2cc(Br)cc3c2N(C(C)=O)CC3)cc1 -3.03%
COc1ccc(CCNc2oc(/C=C/c3ccc(OC)c(OC)c3)nc2C#N)cc1 -23.1%
CC(C)NCC(O)COc1ccc(CCOCC2CC2)cc1 (centres undefined)
CN(C)c1ccc(C(CNC(=O)c2ccccc2Cl)N2CCc3ccccc32)cc1 (centres undefined) 17.1%
O=C(COc1ccc(Cl)cc1)Nc1ccc(O)c(-c2nc3ccccc3s2)c1 16.3%
Cc1ccc(Cn2c(C(=O)O)c(CNCCc3cccs3)c3ccc(C)cc32)cc1 -12.4%
O=C(NC1CC(=O)N(c2ccc(F)cc2)C1)c1ccc(S(=O)(=O)N2CCCC2)cc1 (centres undefined) -12.5%
Cc1ccc(NC(=O)Nc2nc3c(s2)CCCCCC3)cc1C -19.4%
COc1ccccc1NC(=O)c1ccc2[nH]c(C)cc(=O)c2c1 2.27%
O=c1c2sc3ccccc3c2n(Cc2ccccc2F)c(=O)n1-c1ccccc1Cl -12.9%
COc1cccc(CNC(=O)CSc2nc3ccccc3nc2Cc2ccccc2)c1 -18.4%
CCN(CC)S(=O)(=O)c1ccc2nc(NC(=O)c3ccccc3OC)sc2c1 -32%
Cc1ccc2c(c1)cc(C(=O)NCc1ccc(F)cc1)n2C 6.87%
COc1ccccc1N1CCN(c2ccc(=O)n(CC(=O)O)n2)CC1 -12.5%
COc1cccc(CNc2ncnc3c2nnn3C)c1 -17.9%
CNC(=O)C1CCC(Cn2c(=O)c3sccc3n(CC(=O)N3CCCC3)c2=O)CC1 (centres undefined) -1.02%
COc1cccc(C2CC(=O)Nc3c2c(=O)[nH]c2ncnn32)c1OC (centres undefined) -9.35%
CCc1nc(N)nc(N)c1-c1ccc(Cl)cc1
CCOc1ccc(C2C(C(N)=O)=C(C)Nc3nc(-c4ccc(OC)cc4)nn32)cc1 (centres undefined) 1.81%
O=C(C1CCN(S(=O)(=O)c2ccc(Br)s2)CC1)N1CCN(c2ccc(F)cc2)CC1 -2.65%
COc1ccccc1C(=O)Nc1cccc(OCc2cc(=O)n3c4c(sc3n2)CCCC4)c1 3.05%
c1ccc2sc(SN3CCOCC3)nc2c1 4.84%
O=c1c2sc3ccccc3c2n(Cc2ccc(F)cc2)c(=O)n1Cc1ccco1 -11.3%
Cc1cc2ccccc2n1CCNC(=O)c1ccccc1F -14.3%
CC(C)c1ccc(S(=O)(=O)c2nnn3c2nc(NCc2cccs2)c2sccc23)cc1 -6.14%
CC(=O)Nc1ccc(OC(=O)c2ccccc2OC(C)=O)cc1 -4.58%
O=C(NCC(c1ccc2c(c1)OCO2)N1CCN(c2ccccc2)CC1)C(=O)Nc1ccccc1 (centres undefined) -1.83%
O=C(OCc1cc(=O)n2nc(C3CC3)sc2n1)c1ccc(NC(=O)c2ccccc2Cl)cc1 -26.4%
CCc1ccc2oc(C(=O)Nc3cc(Cl)ccc3OC)cc(=O)c2c1 -0.153%
Cc1c(C(=O)Nc2ccccc2)sc2nc(-c3cc4ccccc4oc3=O)[nH]c(=O)c12 4.09%
Fc1ccc(Nc2nc(-c3cccc(Cl)c3)c3c(n2)-c2ccccc2OC3)cc1 -12.3%
CC(=O)[C@@]1(O)CC[C@H]2[C@@H]3C[C@H](C)C4=CC(=O)C=C[C@]4(C)[C@@]3(F)[C@@H](O)C[C@@]21C 7.68%
O=C(Nc1cccc(C(=O)N2CCN(c3ccccc3)CC2)c1)c1nsc2ccccc12 -18.7%
CCOc1ccc(CNC(=O)C2CCN(S(=O)(=O)c3cn(C)cn3)CC2)cc1OC -16.6%
COc1cccc(CN2C(=O)CN(C3CCCCC3)C(=O)C2c2ccc(OC)c(OC)c2)c1 (centres undefined) -1.9%
COc1ccc2c(c1)c1c(c(=O)n(-c3ccccc3C)c(=O)n1CC(=O)N1CCCC1)n2C -13.4%
COc1ccc(-c2cc(C(F)(F)F)c(C#N)c(SCC(=O)Nc3ccccc3F)n2)cc1 -7.15%
COc1ccc(-n2c(/C=C/c3c(C)[nH]c4ccccc34)nc3ccccc3c2=O)cc1 -6.13%
COc1cccc(CNc2nccn(-c3ccc(OC)c(OC)c3)c2=O)c1 -4.72%
Cc1nn(C)c2c1c(-c1ccccc1)cc(=O)n2Cc1ccc(Cl)cc1 0%
COc1ccccc1C(=O)Nc1ccc(OCc2cc(=O)n3ccc(C)cc3n2)cc1 0.631%
O=C(Cn1c2ncccc2c(=O)n1-c1ccccc1)Nc1ccc(Cl)cc1C(F)(F)F 11.9%
COc1ccc(C)cc1-n1c(-c2ccc(C)cc2)cc2c1CC(C)(C)CC2=O 12.5%
COCc1cc(C)nc2sc3c(c12)NC(c1ccc(O)cc1)N(c1ccc(C)cc1)C3=O (centres undefined) -20.1%
O=C(OCc1cccc(C(F)(F)F)c1)c1ccc(-c2nnn(Cc3ccc(F)cc3)n2)cc1 -13.7%
Cc1nn(C(=O)c2ccccc2)c(C)c1S(=O)(=O)N1CCCCCC1 -11%
CCN(C(=O)c1cn(-c2ccc(OC)cc2)c(=O)c2ccccc12)c1cccc(Cl)c1 -25%
CCn1c(=N)c(C(=O)NC2CCCC2)cc2c(=O)n3ccccc3nc21 2.59%
COc1ccc(-c2nc3scc(CCNC(=O)c4cc(OC)cc(OC)c4)n3n2)cc1 -9.61% [at 11.5 µM]
CC(C)N1CCc2nc(SCC(=O)Nc3cccc(F)c3)[nH]c(=O)c2C1 -1.89%
CCOc1ccc(C(=O)OCc2cc(=O)n3cc(C)sc3n2)cc1 -0.931%
CCCCCn1cc2c(c1-c1ccc(Cl)cc1)c(=O)n(C)c(=O)n2C -6.63%
COc1ccccc1NC(=O)c1sc2ncn(Cc3ccccc3Cl)c(=O)c2c1C -0.593%
COC(=O)c1cccc(Nc2nn3c(=O)c4cc5c(cc4nc3s2)OCO5)c1 -1.52%
COc1ccc(S(=O)(=O)NCC(c2ccc(N(C)C)cc2)N2CCOCC2)cc1 (centres undefined) -8.52%
Cc1ccc2[nH]c3c(=O)n(CC(=O)NC(C)C)ncc3c2c1 0.23%
COC(=O)Nc1nc2ccc(Sc3ccccc3)cc2[nH]1
COc1ccc(CNC(=O)CSc2ncc(S(=O)(=O)c3ccc(Br)cc3)c(=O)[nH]2)cc1 -11.5%
O=C(CSC1=Nc2ccccc2N=C(c2ccc(F)cc2)C1)NCc1ccccc1Cl -24.5%
Cc1nn(-c2ccc(N3CCOCC3)nn2)c(C)c1CCC(=O)NCc1ccccc1F -23%
O=C(O)c1cn(C2CC2)c2cc(N3CCNCC3)c(F)cc2c1=O
CCOc1ccc(CNC(=O)c2sc3ncnc(N(C)C4CCCCC4)c3c2C)cc1 -29.8%
NC(=O)c1ccccc1NC(=O)Cn1nc(Cc2cccnc2)c2ccccc2c1=O -16.3%
O=C(CSc1ncc(CO)n1Cc1ccc(Cl)cc1)NCc1ccc(F)cc1 -17.1%
COc1ccc(C(=O)Oc2cc(-c3ccc4c(c3)OCO4)cc(=O)c3c(C)oc(C)c23)cc1 -1.06%
Cc1cccc(NC(=O)CSc2nc(=O)n(Cc3ccccn3)c3c2CCC3)c1C -17.9%
Cc1ccc(Cl)cc1NC(=O)CSc1nc2c(c(=O)[nH]1)CN(Cc1ccccc1)CC2 -13.1%
COC(=O)c1cc2oc(C)cc2n1CC(=O)Nc1cc(Cl)ccc1OC -7.88%
CCOC(=O)c1ccc(NC(=O)CCc2c(C)nc3c(-c4ccc(F)cc4)c(C)nn3c2C)cc1 -10.3%
Cc1ccc(-c2onc(C)c2C)cc1S(=O)(=O)Nc1ccc(Cl)cn1 0.526%
Cc1ccccc1C(=O)Nc1ccc(C(=O)OCc2cc(=O)n3nc(C(C)C)sc3n2)cc1 0.194%
COc1ccc(NC(=O)C2Cc3ccccc3N2C(=O)c2ccccc2)cc1OC (centres undefined) -19.3%
CCOc1ccc(NC(=O)N(C(C)C)C2CCN(C(C)=O)CC2)cc1 -17.2%
Cc1cccc(NC(=O)CSc2nc3c(oc4ccccc43)c(=O)n2-c2ccc(F)cc2)c1 -9.91%
COc1ccc(Nc2cc(C(=O)NCc3ccccc3)c3ccccc3n2)c(OC)c1 5.82%
O=S(=O)(c1ccc2nc(N3CCN(c4ccccc4)CC3)ccc2c1)N1CCCCC1 -17.1%
COc1ccc(-c2noc(-c3cccc(OC)c3OC)n2)cc1 44.5%
CCOc1ccc(-c2cn3c(n2)sc2cc(C(=O)NC4CCCc5ccccc54)ccc23)cc1 (centres undefined) -12.7%
Cc1ccc(NC(=O)CC(C)S(=O)(=O)c2ccc3c(c2)NC(=O)CO3)cc1C (centres undefined) 1.19%
COc1ccc(NC(=O)c2cn3c4c(ccc(Cl)c4c2=O)OC(C)C3)cc1OC (centres undefined) -11%
CSc1ncc(C(=O)Nc2ccc(C(C)=O)cc2)c(-c2ccccc2)n1 37.4%
CCOc1ccc2nc(NC(=O)c3cc(=O)c4cc(C)cc(C)c4o3)sc2c1 0%
O=c1c2cnn(-c3ccc(F)cc3)c2ncn1Cc1ccc(F)cc1 -29.9%
COc1ccc(Cl)cc1NC(=O)Cn1cc2c(n1)CCC(C)C2 (centres undefined) -29.7%
CSc1nnc2[nH]c(=O)cc(C)n12 -2.93%
COc1ccc(CNC(=O)C2Cc3cc(S(=O)(=O)N4CCCCCC4)ccc3N2C(C)=O)cc1 (centres undefined) -0.934%
CCc1ccc(NC(=O)c2cc3c([nH]c2=O)CC(C)(C)CC3=O)cc1 32.9%

Potency, active:
CCN(C(=O)CSc1nc(-c2ccccc2)no1)c1cccc(C)c1 3.16 µM
